Laboratory results: article PMC4336329 (PLoS ONE, 2015)
About 2,200 (0.71%) of roughly 310,000 compounds showed an effect of 50% or more. The effect is printed as a negative number. Some of the results follow.

Target: human ether-à-go-go-related gene (hERG) potassium channel (human, UniProt Q12809)
Assay: primary screen, population patch clamp on CHO cells stably expressing hERG

Chain of human ether-à-go-go-related gene (hERG) potassium channel (Q12809 whole entry, looked up): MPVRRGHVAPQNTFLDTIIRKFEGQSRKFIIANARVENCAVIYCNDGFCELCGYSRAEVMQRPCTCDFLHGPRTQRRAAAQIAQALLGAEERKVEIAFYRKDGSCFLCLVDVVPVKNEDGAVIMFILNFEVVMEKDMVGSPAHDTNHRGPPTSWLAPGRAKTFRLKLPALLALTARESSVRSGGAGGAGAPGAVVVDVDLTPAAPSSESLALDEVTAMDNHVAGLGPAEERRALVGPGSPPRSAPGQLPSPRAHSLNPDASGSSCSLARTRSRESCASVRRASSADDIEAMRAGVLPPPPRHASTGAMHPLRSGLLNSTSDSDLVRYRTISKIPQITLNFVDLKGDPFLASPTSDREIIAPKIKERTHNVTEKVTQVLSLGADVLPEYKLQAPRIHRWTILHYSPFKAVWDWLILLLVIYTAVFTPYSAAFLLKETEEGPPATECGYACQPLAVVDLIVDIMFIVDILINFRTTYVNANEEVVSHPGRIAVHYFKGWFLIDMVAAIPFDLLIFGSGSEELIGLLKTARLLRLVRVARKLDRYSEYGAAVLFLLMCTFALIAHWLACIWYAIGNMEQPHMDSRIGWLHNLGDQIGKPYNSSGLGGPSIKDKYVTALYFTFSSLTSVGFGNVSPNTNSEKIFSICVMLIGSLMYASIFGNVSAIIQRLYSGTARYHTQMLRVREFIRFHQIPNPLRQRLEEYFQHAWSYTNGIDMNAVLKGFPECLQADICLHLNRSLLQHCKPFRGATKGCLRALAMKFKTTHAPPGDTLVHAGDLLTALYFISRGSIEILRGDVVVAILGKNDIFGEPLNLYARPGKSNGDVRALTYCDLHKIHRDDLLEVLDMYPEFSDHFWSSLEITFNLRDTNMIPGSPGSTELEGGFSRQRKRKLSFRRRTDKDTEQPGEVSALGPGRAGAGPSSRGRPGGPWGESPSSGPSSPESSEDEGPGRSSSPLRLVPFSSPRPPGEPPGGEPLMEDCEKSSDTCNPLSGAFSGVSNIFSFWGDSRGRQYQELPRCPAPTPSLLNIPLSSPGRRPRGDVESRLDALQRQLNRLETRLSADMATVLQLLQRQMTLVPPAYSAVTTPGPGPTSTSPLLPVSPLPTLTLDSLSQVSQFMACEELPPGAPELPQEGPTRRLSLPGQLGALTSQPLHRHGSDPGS

SMILES	hERG current change (%, negative = inhibition) at 1uM
COc1cccc(OC)c1C(=O)Nc1nc(N)n(-c2ccccc2)n1	1.1%
Cc1cccc(NC(=O)Nc2ccc(Cl)cc2)n1	13.4%
Cc1ccnc2nc(C(=O)OCC(=O)Nc3ccccc3C(C)(C)C)nn12	5.47%
COc1ccc(NC(=O)C/C(C)=N/NC(=O)C(=O)NC2CCCCC2)c(OC)c1	-3.65%
CCCOc1ccc(C2c3c(oc4cc(C)c(C)cc4c3=O)C(=O)N2CCCN(C)C)cc1OCC (stereo not shown)	11.1%
CCCC(C(=O)NC1CCCC1)N(CCN(CC)CC)C(=O)c1snc(C(N)=O)c1N (stereo not shown)	12.7%
CC(C)C[C@H](NC(=O)c1ccc(OC2CCN(C(=O)C3CC3)CC2)cc1)C(N)=O	3.54%
CC1CCC/C(=C\Nc2ccc(O)cc2)C1=O (stereo not shown)	0.838%
CCOC(=O)CSc1nnc(Cc2cc(=O)[nH]c(=O)[nH]2)n1-c1cccc(OC)c1	7.12%
O=C1CC(c2ccc(S(=O)(=O)Nc3cc(C(F)(F)F)cc(C(F)(F)F)c3)cc2)CN1 (stereo not shown)	2.49%
CCC(C)(C)NC(=O)C(c1cccn1C)N(C(=O)Cn1nnc2ccccc21)c1ccc(F)cc1 (stereo not shown)	8.33%
O=C(Nc1ccc(NC(=O)c2cccs2)cc1Cl)c1ccco1	14.1%
CC(C)Oc1ccc(C(CC(=O)O)NC(=O)C(Sc2ccccc2)c2ccccc2)cc1 (stereo not shown)	4.79%
N/C(COc1ccc(C(=O)O)cc1)=N\O	-0.766%
CCCC(C(=O)NCC1CCCO1)N(Cc1ccco1)C(=O)CNS(=O)(=O)c1ccc(F)cc1 (stereo not shown)	3.14%
CN(C)S(=O)(=O)c1cccc(NC(=O)COC(=O)CCSc2ccc(Cl)cc2)c1	-0.613%
CCCN1CCN(CCCNC(=O)C(CC)n2nc(C)n3c(cc4occc43)c2=O)CC1 (stereo not shown)	14.1%
COc1cc(C(c2sc3nc(C)nn3c2O)N2CCN(c3ccccc3)CC2)cc(OC)c1OC (stereo not shown)	9.63%
Cc1cccc(C)c1C(=NCCN(C)C)c1ccccc1.Cl	-2.42%
C[C@H]1C=C(C(=O)NCc2nc3ccccc3[nH]2)O[C@@H](OCCCCO)C1	11%
O=C(CN(C(=O)CNC(=O)c1ccco1)c1cccc(F)c1)NC1CCCCC1	9.91%
CC(C)=C(NC(=O)c1ccccc1)C(=O)N/N=C(\C)c1ccccc1O	18.7%

SMILES	hERG current change (%, negative = inhibition) at 1uM
O=[N+]([O-])CC(=Nc1ccc(F)cc1)N/N=C\c1oc(O)c2ccccc12	10.3%
Cc1ccc(S(=O)(=O)N2CCC(C(=O)N3CCN(c4ccccn4)CC3)CC2)cc1	-4.27%
Cc1cc(C)c2oc(C(=O)N(Cc3cccs3)C3CCS(=O)(=O)C3)cc(=O)c2c1 (stereo not shown)	11.1%
O=C(CNC(=O)c1ccco1)N/N=C/c1cccs1	13.7%
CN(C)C(=S)NC(C)(C)C	4.37%
Cc1cc2[nH]c(=O)c(=O)[nH]c2cc1S(=O)(=O)N(C)C1CCCCC1	12.1%
Cc1c(C(=O)N(CC(C)C)c2c(N)n(Cc3ccccc3)c(=O)[nH]c2=O)sc2nc3n(c(=O)c12)CCC3	11.2%
C=CCn1c(SCC(=O)N(CC)C2CCS(=O)(=O)C2)nc2ccccc2c1=O (stereo not shown)	-81.6%
COCCNC(=O)C(=O)NNC(=O)CCc1ccccc1	9.47%
CCNC(=S)N=Nc1c(O)[nH]c2ccc([N+](=O)[O-])cc12	1.97%
Clc1cccc(/C(Cc2nc3ccccc3[nH]2)=N\Nc2ccccc2)c1	9.34%
CCc1ccc(C(=O)COC(=O)C(CCSC)NC(=O)C23CC4CC(CC(C4)C2)C3)cc1 (stereo not shown)	14.1%
COc1ccccc1CNC(=O)COC(=O)c1ccc(Cl)c(N)c1	10.7%
Nc1nnc(SCC(=O)OCc2ccccc2)s1	14.4%
CCCCCCC[C@H](N)[C@H](O)C(=O)N(C)[C@@H](CCS(C)=O)C(=O)N[C@@H](Cc1ccc(O)cc1)C(=O)N[C@@H](Cc1ccc(O)cc1)C(=O)O (stereo partly shown)	10.9%
CCCCCN(C(=O)CCC(=O)OCC(=O)c1cccc(OC)c1)c1c(N)n(CCCC)c(=O)[nH]c1=O	-23.1%
Cc1cc(C(=O)Cn2nnc3ccccc3c2=O)c(C)n1-c1c(C)n(C)n(-c2ccccc2)c1=O	13.5%
Cc1cccc2c1OCC/C2=N\NC(=O)COc1ccccc1Cl	10.6%
COCCCNC(=O)CN1CCN(Cc2ccccc2Cl)C1=O	27%
CCOC(=O)c1ccc(OCc2nc(-c3cccs3)no2)cc1	7.51%
Cc1ccc(C(=O)Nc2nc3ccccc3c(=O)s2)cc1	15.3%
CN1c2ccc([N+](=O)[O-])cc2CC2(C(=O)NC(=O)NC2=O)C1c1ccccc1 (stereo not shown)	11.1%

SMILES	hERG current change (%, negative = inhibition) at 1uM
Cc1noc(C)c1COC(=O)c1ccc2c(c1)OCCO2	4.74%
COCCn1c(SCC(=O)NCc2ccco2)nnc1C(C)C	16.3%
COc1ccc(C2/C(=C(/O)c3ccccc3)C(=O)C(=O)N2CCO)cc1 (stereo not shown)	-4.86%
COCCn1c(CN2CCN(c3cccc(Cl)c3)CC2)nc2c1c(=O)n(C)c(=O)n2C	-28.3%
Cc1cc(COc2ccccc2OCc2cc(C)no2)on1	16.8%
CCCNC(=O)N1CCN(c2ncccn2)CC1	3.29%
CCOC(=O)N1CCN(c2c(Nc3cc(C)[nH]n3)c(=O)c2=O)CC1	13.1%
Cc1c(C(=O)N2CCCCC2)c(S(=O)(=O)NCc2ccc(F)cc2)c(C)n1C	6.37%
O=C(CCc1nc2sc3c(c2c(=O)[nH]1)CCCC3)NCCc1ccccc1	10.4%
CSc1ccc(/C=N/N2CCN(c3ccccc3)CC2)cc1	-13.3%
CCOc1ccc(NC(=O)c2ccc(-c3csc(C)n3)cc2)cc1	15.4%
CC[n+]1c(/C=C/N(C)c2ccccc2)sc2ccc(Cl)cc21.[O-][Cl+3]([O-])([O-])[O-]	-24.4%
C=CCn1c(=O)c2ccccc2n2c(SCC(=O)c3ccccc3)nnc12	7.16%
Cc1ccccc1-n1nc2c(c1NC(=O)C(C)(C)C)CS(=O)(=O)C2	14.8%
Cc1cccc(NC(=O)NCCCCc2ccccc2)c1	7.23%
CCCCn1c(SCC(=O)N2CCCC2)nc2c1c(=O)n(C)c(=O)n2C	-6.17%
CCc1ccc(CSc2nccn2-c2ccccc2)cc1	8.1%
COc1ccc(S(=O)(=O)N2CCCCCC2)cc1NC(=O)c1ccccc1	15.5%
CC(=O)Nc1ccc(OCCCNC(=O)c2c(-c3ccccc3)noc2C)cc1	22.9%
COCCNC(=O)C1CCN(S(=O)(=O)c2c(C)noc2/C=C/c2cccs2)CC1	-10.8%
O=C(NCCS(=O)CCNC(=O)C(F)(F)F)C(F)(F)F	14.8%
Cc1ccc(CSCCNC(=O)CCSc2ccccc2)cc1	-5.65%

SMILES	hERG current change (%, negative = inhibition) at 1uM
CN(C)C(=S)Nc1ccc2ccccc2c1	20.6%
COC(=O)c1ccc(NC(=O)C(=O)N2CCN(C(=S)Nc3ccc(C)cc3)CC2)cc1	12.6%
C/C(=N\N=C1\NC(=O)C(CC(=O)Nc2ccc(Cl)cc2)S1)c1ccco1 (stereo not shown)	2.05%
COc1ccccc1CC(=O)O/N=C(\N)c1cccc([N+](=O)[O-])c1	6.87%
CN(CC(=O)Nc1ccccc1Cl)C(=O)COC(=O)c1cnccn1	9.8%
CCS(=O)(=O)C1=NSC2=NC(=O)/C(=C\c3ccc(OS(=O)(=O)c4ccccc4)cc3)C(=N)N21	23.2%
COc1cccc(Nc2nc(-c3ccc4c(c3)OCCO4)cs2)c1	6.03%
COc1cccc(CNC(=O)C2CCN(S(=O)(=O)c3ccc4c(c3)CC(C)N4C(C)=O)CC2)c1 (stereo not shown)	4.71%
CC(C)(C)OC(=O)N1CCN(C(=O)c2[nH]cnc2C(=O)Nc2nccs2)CC1	4.3%
COc1ccc(OC)c(NC(=O)Cn2c(CCC(=O)O)ccc2-c2ccccc2)c1	-3.62%
CN=C(c1ccc([N+](=O)[O-])cc1)N1CCCCC1	9.55%
COc1ccc(CC(NC(C)=O)C(=O)NC2CCN(c3c4c(nc5ncnn35)CCC4)CC2)cc1 (stereo not shown)	12%
CCOc1ccc(S(=O)(=O)NCCC(=O)N(CC)CC(=O)Nc2c(F)cccc2F)cc1	5.53%
CCn1ccnc1CN(C)Cc1nc(-c2ccccc2)no1	3.14%
C/C=C/C=N/NC(=O)CN(c1ccc(Br)cc1)S(=O)(=O)c1ccccc1	7.6%
Cc1ccc(C(=O)O[C@H](C(=O)O)[C@H](OC(=O)c2ccc(C)cc2)C(=O)O)cc1	6.56%
Cc1sc2ncnc(SCc3ccco3)c2c1C	8.64%
COc1ccc(S(=O)(=O)Nc2ccc(F)c(F)c2)cc1Cl	15.8%
CCOc1ccc(N2CC(C(=O)N3CCCc4ccccc43)CC2=O)cc1 (stereo not shown)	-31.4%
